Experimental data reported in the supplement of paper PMC12217912.
This is one part of the list. The full chains were built here from the parent and the listed change. Values near 0.05 are background.

B1: TEV protease; numbered along this chain (parent)
chain: MGESLFKGPRDYNPISSSICHLTNESDGHTTSLYGIGFGPFIITNKHLFRRNNGTLVVQSLHGVFKVKDTTTLQQHLVDGRDMIIIRMPKDFPPFPQKLKFREPQREERICLVTTNFQTKSMSSMVSDTSCTFPSGDGIFWKHWIQTKDGQCGSPLVSTRDGFIVGIHSASNFTNTNNYFTSVPKNFMELLTNQEAQQWVSGWRLNADSVLWGGHKVFMVKPEEPFQPVKEATQL

Variants of: B1
Assay: raw area under fraction-flipped curve 0-4 h after induction (AUC4h, not background-subtracted), DNA-recorder readout of cleavage of the substrate (dimensionless); higher = more cleavage of the substrate by the protease variant
Conditions: temperature: 34 °C; time window: 0-4 h after rhamnose induction
Protocol: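 In vivo DNA recorder in E. coli TOP10(DE3) ΔrhaA at 34 °C. Each TEVp single-site mutant (parent TEVp 0) is paired with a single-site variant of the 7-mer TEVs (canonical ENLYFQ|S). The substrate sits between flexible linkers in a Bxb1-sfGFP-TEVs-SsrA fusion, so cleavage stabilises Bxb1 and speeds flipping of a recombination array, read by NGS. The value is the raw area under the fraction-flipped curve over 0-4 h after rhamnose induction (AUC4h), with ≥20 reads per time point. It is not background-subtracted; inactive controls average about 0.047.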
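Further: Bxb1 expression induced with 0.2% (w/v) L-rhamnose at OD600 near 0.5, cultures sampled hourly, flipped fraction per protease–substrate barcode pair counted by paired-end Illumina sequencing.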

Variant	area with substrate EALYFQS	area with substrate ECLYFQS	area with substrate EDLYFQS	area with substrate EELYFQS	area with substrate EGLYFQS	area with substrate EHLYFQS	area with substrate EILYFQS	area with substrate EKLYFQS	area with substrate EMLYFQS	area with substrate EPLYFQS	area with substrate EQLYFQS	area with substrate ERLYFQS	area with substrate ESLYFQS	area with substrate EVLYFQS	area with substrate EYLYFQS	area with substrate ELLYFQS	area with substrate EWLYFQS	area with substrate EFLYFQS	area with substrate ETLYFQS
I15C	0.118	0.0712	0.16	0.123	0.149	0.0913	0.1	0.0987	0.11	0.123	0.122	0.0784	0.095	0.0353	0.119	–	–	–	–
I15S	0.0823	0.0734	0.0883	0.0996	0.0758	–	0.0759	0.0831	–	0.0914	0.0805	0.0717	0.0684	0.0889	–	0.0846	0.0765	–	–
S17D	0.115	0.098	0.112	–	0.0973	0.103	0.104	0.154	0.118	0.137	0.126	0.13	0.103	0.0923	0.0683	0.104	0.0795	0.0843	–
S17F	0.135	0.0873	0.103	0.11	0.0968	0.0918	0.0913	0.0768	0.103	0.117	0.0982	0.101	0.104	–	0.0836	–	0.0836	–	0.0871
S17Q	0.135	0.125	0.152	–	0.108	0.122	0.136	–	0.0895	–	0.134	0.099	0.122	0.111	–	0.0944	0.116	0.112	0.124
I19H	0.0832	0.0892	–	–	–	0.0714	0.0816	0.0856	0.0941	0.097	–	0.0777	0.107	0.0785	–	0.0814	0.0847	–	–
H21G	0.128	0.117	0.119	0.116	0.0907	0.118	0.0879	0.101	0.14	0.11	0.111	0.113	0.0926	0.0884	0.0942	0.0744	–	–	0.109
H21N	0.113	0.087	–	0.0976	0.0876	0.082	0.0733	0.0977	0.11	–	0.0937	0.0904	0.0934	0.0902	–	–	–	0.0859	–
H21Y	0.0965	0.0852	–	–	0.0719	0.094	0.0843	0.0954	0.119	–	0.11	–	–	0.103	–	0.078	0.0882	0.0669	0.0963
H21D	0.0709	0.0726	–	0.0995	0.0807	0.0784	0.0801	0.0615	0.105	–	0.0503	0.103	0.0863	0.064	0.0766	0.0832	0.0783	0.0738	–
L22K	0.0558	0.0474	–	0.0493	0.0525	0.0426	0.0333	0.0471	0.0418	0.0398	0.0429	0.0283	0.0404	0.0238	0.049	–	0.0376	0.0403	–
L22W	0.0429	0.0416	0.0441	0.0464	–	–	0.0252	0.0524	0.0467	0.0596	0.0516	0.049	0.041	0.0428	0.0472	0.0389	0.0548	0.0646	0.0576
S26C	0.108	0.0812	0.118	–	–	0.102	0.087	0.1	0.0822	–	0.112	0.0583	0.0881	0.0861	–	0.0991	–	0.0955	0.112
S18R	0.0965	0.115	0.103	–	0.105	0.0753	0.089	0.0874	0.129	–	–	0.0957	0.0914	–	0.103	–	–	0.0755	–
P14W	0.119	0.106	0.118	–	0.0943	–	0.0985	0.113	0.12	0.141	0.118	0.104	0.11	0.0892	0.0929	0.117	0.099	–	0.188
T23R	0.0942	0.0932	0.0966	0.119	0.093	0.0802	0.0787	0.086	0.111	0.114	0.129	–	0.0993	0.0849	–	–	0.0944	–	–
T23I	0.116	0.0983	0.103	–	0.13	–	0.0859	0.128	0.138	–	0.152	0.105	0.102	0.115	–	–	0.104	–	0.167
T23S	0.103	0.103	–	0.102	0.102	–	0.0974	0.101	0.117	0.104	0.0982	0.104	0.0911	0.0841	–	0.0993	0.0913	0.0962	0.1
C20M	0.0983	–	0.126	0.146	0.0955	–	0.121	0.0962	0.0779	–	0.105	0.101	0.0901	0.0991	0.0879	–	–	0.0806	–
C20R	0.0258	0.0459	0.05	0.0543	0.0306	0.0454	0.0521	0.0523	0.0497	0.0408	0.0525	0.0591	0.0482	0.0313	0.052	0.0499	0.0745	–	0.0535
H29E	0.14	0.102	–	0.104	–	–	0.105	0.117	0.135	0.111	0.142	0.116	0.0893	0.105	0.0036	0.0931	–	–	–
H29A	0.114	0.12	–	0.111	0.101	0.0464	–	–	0.123	–	0.107	0.0978	0.0867	0.0955	–	0.098	–	0.111	0.118
D27Q	0.15	0.0404	0.111	0.0687	–	–	–	0.11	0.107	0.113	0.103	0.0911	0.0694	0.0652	–	0.0988	–	0.0963	–
D27K	0.0858	0.0826	0.11	0.083	–	–	0.0681	0.115	0.0974	0.112	0.098	–	0.087	0.0958	–	0.083	0.0886	–	–
